Data: PubChem BioAssay AID1345083 (National Center for Advancing Translational Sciences (NCATS), 2018)
The whole screen tested about 94,000 compounds, of which about 6,200 (6.6%) were called active. The shares of active, inactive and inconclusive entries below differ from those in the screen. The call rests on the fitted dose curve; in most records, active means well fitted inhibition curve with a large enough effect; inconclusive means small, poorly fitted or top-dose-only effect; inactive means flat fitted curve, though single readings scatter. Potencies beside an inconclusive call are fits to weak or partial responses and may not hold up.

Experiment: Cytotoxic Profiling in HEK 293 Cell Line of Diverse Libraries Using Quantitative High-Throughput Screening; further: nearly all actives have a fitted effect of over 60% in size
Conditions: HEK 293 viability, ATP luminescence (CellTiter-Glo), 48-72 h; series mostly up to 115 µM
Procedure, shortened: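 qHTS cytotoxicity; HEK 293, 250 cells/well; compound pinned; 48 or 72 hr, 37 degree Celsius, 5% CO2, 95% humidity; CellTiter-Glo, 10 min RT; luminescence (ATP).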
Potency means the concentration at half of the fitted maximal effect; tags describe the fitted curve by direction and shape.

SMILES | Potency
O=C(NCc1ccc(Cl)cc1)C1CCc2nnc(-c3cccc(C(F)(F)F)c3)n21 (stereo not drawn) | inconclusive: 39.8 µM [inhibitor, full curve, poor fit]
COCCc1noc(-c2nc(-c3ccc(Cl)cc3)no2)n1 | inconclusive: 50.1 µM [inhibitor, partial curve, poor fit]
CCOc1ccc(C(=O)N2CCCC3(C2)NC(=O)N(Cc2cccc(Cl)c2)C3=O)cc1 (stereo not drawn) | inconclusive: 89.1 µM [inhibitor, single point]
CC1CCCN(c2ncnc3c2CN(c2ccc(Cl)cc2)C(=O)CN3C)C1 (stereo not drawn) | inconclusive: 56.2 µM [inhibitor, partial curve, poor fit]
O=C(c1cccc(F)c1)N1CCC2(CC1)N=C(c1ccc(Cl)cc1)NO2 | inconclusive: 44.7 µM [inhibitor, partial curve]
C[C@H]1[C@@H]2[C@@H](O)C([C@H](C)C(=O)N3CCC(Cc4ccccc4)CC3)CC[C@@]2(C)CC[C@@H]1NC(=O)c1cnccn1 (stereo partly drawn) | inconclusive: 44.7 µM [inhibitor, partial curve, poor fit]
COc1ccccc1Cn1c(=O)c(C(=O)NCCc2ccccc2)nc2cccnc21 | inconclusive: 79.4 µM [inhibitor, partial curve, poor fit]
O=C(NCc1ccncc1)c1nc2c(o1)CCN(Cc1ccccc1F)CC2 | inconclusive: 79.4 µM [inhibitor, partial curve, poor fit]
COc1ccc(CN2C=C(C(=O)OCc3noc(-c4ccccc4C)n3)C(C)=NS2(=O)=O)cc1 | inconclusive: 35.5 µM [inhibitor, full curve, poor fit]
CC(=O)NCC(=O)N1Cc2ccccc2CC2(CCCN(CC3CCOCC3)C2)C1 (stereo not drawn) | inactive
CCCc1cc(N2CCC(NCc3cc(F)c(F)c(F)c3)CC2)nc(C)n1 | active: 50.1 µM
CC(C)CN(CC(C)C)C(=O)CC1C(=O)NCCN1Cc1cccs1 (stereo not drawn) | inconclusive: 56.2 µM [inhibitor, partial curve, poor fit]
CN1C[C@H](NC(=O)c2ccc(F)cc2)CCC[C@@H](C(=O)N(C)Cc2cccnc2)CC1=O | inactive
O=C1Nc2ccccc2CN(CC2CCCC2)C12CCNC2 (stereo not drawn) | inactive
O=C1NCCCCCN(C(=O)NCc2ccc(F)cc2)[C@H]2CCCC[C@@H]12 | inactive
O=C1N(C2CCOCC2)C[C@H]2CN(Cc3ccc(C(F)(F)F)cc3)CCN12 | inconclusive: 50.1 µM [inhibitor, partial curve, poor fit]
O=c1n(-c2ccc(F)cc2F)nc2n1CCN(Cc1cccs1)C2 | inconclusive: 79.4 µM [inhibitor, partial curve, poor fit]
O=C(CNC(=O)c1cccc(-c2ccsc2)c1)NCc1ccccc1 | inconclusive: 35.5 µM [inhibitor, partial curve, poor fit]
CCn1ccc(C(=O)N2CCC(n3c(C)cnc3C3CCC3)C2)n1 (stereo not drawn) | inactive
O=C(NCC1(COc2cccnc2)C[C@@H](O)[C@@H](O)C1)C1CC1 (stereo partly drawn) | active: 31.6 µM
CC(=O)N1CCCC1C(=O)Nc1ccc(-c2nc3ccccc3o2)cc1 (stereo not drawn) | inconclusive: 39.8 µM [inhibitor, partial curve, poor fit]

SMILES | Potency
Fc1ccc(CNC[C@H]2Cn3c(-c4ccc(F)cc4)cnc3CO2)cc1 | inconclusive: 100 µM [inhibitor, partial curve, poor fit]
COc1ccc(CCNC(=O)c2cc(-c3ccsc3)nc3c2cnn3C)cc1 | inconclusive: 35.5 µM [inhibitor, full curve]
Cc1cc(C)cc(-c2ccc(CN3CCCC3C(=O)NC3CCCC3)cc2)c1 (stereo not drawn) | active: 28.2 µM
CC(=O)N1C[C@@H]2CCCN3CCC[C@@H]([C@H]23)[C@H]1CCCC(=O)NCc1ccc(C)o1 | inactive
Cc1noc(-c2cn(C3CCN(C(=O)c4cc5ccccc5[nH]4)CC3)nn2)n1 | inactive
COc1cccc(-c2cc3c(=O)n(CCNC(=O)Cc4ccc(F)cc4)ccn3n2)c1 | inactive
CN(Cc1ccccc1)Cc1cn([C@H]2CO[C@H]3[C@@H]2OC[C@@H]3NC(=O)Nc2cccc(C(F)(F)F)c2)nn1 | inconclusive: 50.1 µM [inhibitor, partial curve, poor fit]
O=C(NCCc1c[nH]c2ccccc12)C1CC(=O)N(c2n[nH]c3cccc(F)c23)C1 (stereo not drawn) | inconclusive: 89.1 µM [inhibitor, single point]
Cc1ccc(-n2cccn2)c(CN2CCCC(CCC(=O)Nc3ccccc3F)C2)c1 (stereo not drawn) | inconclusive: 56.2 µM [inhibitor, partial curve, poor fit]
CN(C)C(=O)c1cc2c(s1)CCC(C(=O)N1CCN(c3ccccn3)CC1)C2 (stereo not drawn) | inconclusive: 50.1 µM [inhibitor, partial curve, poor fit]
CC(=O)N1CCC(NC[C@@H]2C=C(C)[C@H](Cc3nc4ccccc4n3C)C[C@H]2C(C)C)CC1 | inactive
O=C(NCCc1ccccc1F)c1ccc2oc(-c3ccncc3)nc2c1 | inactive
Cc1c(Cl)cccc1NC(=O)c1cnc(-c2ccccc2)nc1-c1ccncc1 | inconclusive: 50.1 µM [inhibitor, partial curve, poor fit]
CN1C(=O)[C@@H]2C[C@@H](CN2Cc2ccccc2)Oc2ccccc21 | inactive
CCOC(=O)C1CCN(C(=O)c2nc3sccn3c2-c2cccnc2)CC1 | inactive
Cc1ccc(N2CC(c3noc(-c4ccccc4Cl)n3)CC2=O)cc1 (stereo not drawn) | inconclusive: 56.2 µM [inhibitor, partial curve, poor fit]
COc1ccc(CCNC(=O)c2cc(-c3cccnc3)nc3c2cnn3C)cc1 | inconclusive: 50.1 µM [inhibitor, partial curve, poor fit]
COCc1cc(=O)n(CC(=O)Nc2cc(C)cc(C)c2)c(N2CCOCC2)n1 | inconclusive: 20 µM [inhibitor, full curve, poor fit]
CSc1ccc(CNC(=O)c2ccc3c(c2)N(C)C2CCCCCN2C3=O)cc1 (stereo not drawn) | inconclusive: 28.2 µM [inhibitor, full curve]
CCN1CCN(C(=O)c2ccc3oc(-c4ccncc4)nc3c2)CC1 | inactive
COc1cccc(-c2cc(-c3nc(C4CCOC4)no3)[nH]n2)c1 (stereo not drawn) | inconclusive: 79.4 µM [inhibitor, partial curve, poor fit]

SMILES | Potency
CN(Cc1ccccc1)c1ncccc1CNc1ccc(C#N)cn1 | inconclusive: 79.4 µM [inhibitor, partial curve, poor fit]
Cc1ccc2[nH]c3c(c2c1)CCCC3NC(N)=O (stereo not drawn) | inconclusive: 50.1 µM [inhibitor, partial curve, poor fit]
O=C(Nc1ccc2c(c1)OCCO2)N1CCCC(c2nnnn2-c2ccccc2)C1 (stereo not drawn) | inconclusive: 79.4 µM [inhibitor, partial curve, poor fit]
O=C(c1ccsc1)N1CCCC(n2cc(-c3nc(C4CC4)no3)nn2)C1 (stereo not drawn) | inconclusive: 50.1 µM [inhibitor, partial curve, poor fit]
COc1ccc(C(=O)N2CCC(N3C(=O)c4c(c(C)nn4-c4ccccc4)C3C)C2)cc1 (stereo not drawn) | inconclusive: 8.91 µM [inhibitor, full curve, poor fit]
COc1ccc(CN2CCc3oc(C)c(C(=O)NC(C)Cn4ccc(C)n4)c3C2)cc1 (stereo not drawn) | inconclusive: 39.8 µM [inhibitor, single point]
O=C(NC1CCCCCC1)C1CN(c2ccnc3ccnn23)C1 | inconclusive: 25.1 µM [inhibitor, full curve]
Cn1c(CN2CCN(CCN3CCOCC3)CC2)nnc1C1CC(N)C1 (stereo not drawn) | inactive
CCCS(=O)(=O)N1CCC2(CC1)CC2c1noc(C)n1 (stereo not drawn) | inconclusive: 63.1 µM [inhibitor, partial curve, poor fit]
CN(Cc1nc2c(n1Cc1ccccc1)C(=O)N(CC1CCOCC1)CCN2)c1ccccc1 | inconclusive: 56.2 µM [inhibitor, partial curve, poor fit]
CN(C)c1ccc(-n2c(=O)c(C(=O)NCC(F)F)nc3cccnc32)cc1 | inactive
N#Cc1ccc(CN2CCC3(CC2)CC(c2cccc(C(F)(F)F)c2)=NO3)cc1 | active: 31.6 µM
C[C@@H]1CN(C(=O)CC2CCN(Cc3ccccc3)CC2)CC[C@]1(C)O | inactive
Cc1noc(-c2nc(-c3ccc(Cl)c(F)c3)no2)n1 | inconclusive: 89.1 µM [inhibitor, single point]
O=C(NCC1CC1)C1CCN(c2nccc(Nc3ccccc3Cl)n2)CC1 | active: 31.6 µM
CC(C)C[C@@H]1N[C@H](C(=O)NCc2ccc(C(F)(F)F)cc2)Cc2c[nH]c3cccc1c23 | active: 31.6 µM
Oc1ccccc1-c1cc(C2=CCOCC2)c2cncn2c1 | active: 100 µM
COc1cccc(CN2CCc3c(cc(C(=O)Nc4ccc(C)cc4C)n3C)C2)c1 | inconclusive: 39.8 µM [inhibitor, partial curve, poor fit]
O=C(c1ccc(F)cc1Cl)N1CCN(c2cc(-c3ccc(F)cc3)[nH]n2)CC1 | inconclusive: 31.6 µM [inhibitor, partial curve, poor fit]
CCN1c2cc(C(=O)Nc3ccc4c(c3)OCCO4)ccc2C(=O)N2CCCCC21 (stereo not drawn) | inconclusive: 39.8 µM [inhibitor, partial curve, poor fit]
COc1cc(CN2CCCC3(Cc4ccccc4CNC3=O)C2)cc(OC)c1 (stereo not drawn) | inconclusive: 79.4 µM [inhibitor, partial curve, poor fit]
